Assay results from the supplement of paper PMC8728848.
Some of the results follow.

Assays:
Assay in all cases: glycan array binding signal (z-score within array); higher = stronger binding
Details in all cases: glycan notation: IUPAC condensed, linker removed
[1] = target: Neu5Ac(a2-6)Gal(b1-3)GlcNAc(b1-3)[Gal(b1-4)GlcNAc(b1-6)]Gal(b1-4)Glc
Method in brief: (§1)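 Glycan array data came from 3228 arrays in the Consortium for Functional Glycomics database, and only arrays with an available protein sequence were kept. Glycan names were put into IUPAC-condensed notation, and columns mapping to the same glycan were averaged. The binding signal is a within-array Z-score, averaged across arrays of one protein sequence run at different concentrations or buffers and across linkers. A negative Z-score can be read as non-binding.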

Neu5Ac(a2-6)Gal(b1-4)Glc = target: Neu5Ac(a2-6)Gal(b1-4)Glc
Method in brief: as §1

[2] = target: Neu5Ac(a2-6)Gal(b1-4)GlcNAc
Method in brief: as §1

[3] = target: Neu5Ac(a2-6)Gal(b1-4)GlcNAc(b1-2)Man
Method in brief: as §1

[4] = target: Neu5Ac(a2-6)Gal(b1-4)GlcNAc(b1-2)Man(a1-3)Man(b1-4)GlcNAc(b1-4)GlcNAc
Method in brief: as §1

[5] = target: Neu5Ac(a2-6)Gal(b1-4)GlcNAc(b1-2)Man(a1-3)[Gal(b1-4)GlcNAc(b1-2)Man(a1-6)]Man(b1-4)GlcNAc(b1-4)GlcNAc
Method in brief: as §1

[6] = target: Neu5Ac(a2-6)Gal(b1-4)GlcNAc(b1-2)Man(a1-3)[GlcNAc(b1-2)Man(a1-6)]Man(b1-4)GlcNAc(b1-4)GlcNAc
Method in brief: as §1

[7] = target: Neu5Ac(a2-6)Gal(b1-4)GlcNAc(b1-2)Man(a1-3)[GlcNAc(b1-4)][Neu5Ac(a2-6)Gal(b1-4)GlcNAc(b1-2)Man(a1-6)]Man(b1-4)GlcNAc(b1-4)GlcNAc
Method in brief: as §1

[8] = target: Neu5Ac(a2-6)Gal(b1-4)GlcNAc(b1-2)Man(a1-3)[Man(a1-6)]Man(b1-4)GlcNAc(b1-4)GlcNAc
Method in brief: as §1

[9] = target: Neu5Ac(a2-6)Gal(b1-4)GlcNAc(b1-2)Man(a1-3)[Neu5Ac(a2-3)Gal(b1-4)GlcNAc(b1-2)Man(a1-6)]Man(b1-4)GlcNAc(b1-4)GlcNAc
Method in brief: as §1

[10] = target: Neu5Ac(a2-6)Gal(b1-4)GlcNAc(b1-2)Man(a1-3)[Neu5Ac(a2-6)Gal(b1-4)GlcNAc(b1-2)Man(a1-6)]Man(b1-4)GlcNAc(b1-4)GlcNAc
Method in brief: as §1

[11] = target: Neu5Ac(a2-6)Gal(b1-4)GlcNAc(b1-2)Man(a1-3)[Neu5Ac(a2-6)Gal(b1-4)GlcNAc(b1-2)Man(a1-6)]Man(b1-4)GlcNAc(b1-4)[Fuc(a1-6)]GlcNAc
Method in brief: as §1

[12] = target: Neu5Ac(a2-6)Gal(b1-4)GlcNAc(b1-2)Man(a1-6)Man(b1-4)GlcNAc(b1-4)GlcNAc
Method in brief: as §1

[13] = target: Neu5Ac(a2-6)Gal(b1-4)GlcNAc(b1-2)Man(a1-6)[Gal(b1-4)GlcNAc(b1-2)Man(a1-3)]Man(b1-4)GlcNAc(b1-4)GlcNAc
Method in brief: as §1

[14] = target: Neu5Ac(a2-6)Gal(b1-4)GlcNAc(b1-2)Man(a1-6)[GlcNAc(b1-2)Man(a1-3)]Man(b1-4)GlcNAc(b1-4)GlcNAc
Method in brief: as §1

[15] = target: Neu5Ac(a2-6)Gal(b1-4)GlcNAc(b1-2)Man(a1-6)[Man(a1-3)]Man(b1-4)GlcNAc(b1-4)GlcNAc
Method in brief: as §1

[16] = target: Neu5Ac(a2-6)Gal(b1-4)GlcNAc(b1-2)[Neu5Ac(a2-6)Gal(b1-4)GlcNAc(b1-4)]Man(a1-3)[GlcNAc(b1-4)][Neu5Ac(a2-6)Gal(b1-4)GlcNAc(b1-2)[Neu5Ac(a2-6)Gal(b1-4)GlcNAc(b1-6)]Man(a1-6)]Man(b1-4)GlcNAc(b1-4)GlcNAc
Method in brief: as §1

[17] = target: Neu5Ac(a2-6)Gal(b1-4)GlcNAc(b1-2)[Neu5Ac(a2-6)Gal(b1-4)GlcNAc(b1-4)]Man(a1-3)[GlcNAc(b1-4)][Neu5Ac(a2-6)Gal(b1-4)GlcNAc(b1-4)Man(a1-6)]Man(b1-4)GlcNAc(b1-4)GlcNAc
Method in brief: as §1

[18] = target: Neu5Ac(a2-6)Gal(b1-4)GlcNAc(b1-2)[Neu5Ac(a2-6)Gal(b1-4)GlcNAc(b1-6)]Man(a1-6)[Neu5Ac(a2-6)Gal(b1-4)GlcNAc(b1-2)Man(a1-3)][GlcNAc(b1-4)]Man(b1-4)GlcNAc(b1-4)GlcNAc
Method in brief: as §1

[19] = target: Neu5Ac(a2-6)Gal(b1-4)GlcNAc(b1-3)Gal(b1-3)GlcNAc
Method in brief: as §1

[20] = target: Neu5Ac(a2-6)Gal(b1-4)GlcNAc(b1-3)Gal(b1-4)GlcNAc
Method in brief: as §1

[21] = target: Neu5Ac(a2-6)Gal(b1-4)GlcNAc(b1-3)Gal(b1-4)GlcNAc(b1-2)Man(a1-3)[Neu5Ac(a2-6)Gal(b1-4)GlcNAc(b1-3)Gal(b1-4)GlcNAc(b1-2)Man(a1-6)]GalNAc
Method in brief: as §1

[22] = target: Neu5Ac(a2-6)Gal(b1-4)GlcNAc(b1-3)Gal(b1-4)GlcNAc(b1-3)Gal(b1-4)GlcNAc
Method in brief: as §1

[23] = target: Neu5Ac(a2-6)Gal(b1-4)GlcNAc(b1-3)Gal(b1-4)GlcNAc(b1-3)Gal(b1-4)GlcNAc(b1-2)Man(a1-3)[Neu5Ac(a2-6)Gal(b1-4)GlcNAc(b1-3)Gal(b1-4)GlcNAc(b1-3)Gal(b1-4)GlcNAc(b1-2)Man(a1-6)]GalNAc
Method in brief: as §1

[24] = target: Neu5Ac(a2-6)Gal(b1-4)GlcNAc(b1-3)Gal(b1-4)GlcNAc(b1-3)GalNAc
Method in brief: as §1

[25] = target: Neu5Ac(a2-6)Gal(b1-4)GlcNAc(b1-3)Gal(b1-4)GlcNAc(b1-3)[Neu5Ac(a2-6)Gal(b1-4)GlcNAc(b1-3)Gal(b1-4)GlcNAc(b1-6)]GalNAc
Method in brief: as §1

[26] = target: Neu5Ac(a2-6)Gal(b1-4)GlcNAc(b1-3)Gal(b1-4)GlcNAc(b1-6)[Gal(b1-3)]GalNAc
Method in brief: as §1

[27] = target: Neu5Ac(a2-6)Gal(b1-4)GlcNAc(b1-3)Gal(b1-4)[Fuc(a1-3)]GlcNAc(b1-3)Gal(b1-4)[Fuc(a1-3)]GlcNAc
Method in brief: as §1

[28] = target: Neu5Ac(a2-6)Gal(b1-4)GlcNAc(b1-3)GalNAc
Method in brief: as §1

[29] = target: Neu5Ac(a2-6)Gal(b1-4)GlcNAc(b1-3)[Neu5Ac(a2-6)Gal(b1-4)GlcNAc(b1-6)]GalNAc
Method in brief: as §1

[30] = target: Neu5Ac(a2-6)Gal(b1-4)GlcNAc(b1-6)GalNAc
Method in brief: as §1

[31] = target: Neu5Ac(a2-6)Gal(b1-4)GlcNAc(b1-6)[Gal(b1-3)GlcNAc(b1-3)]Gal(b1-4)Glc
Method in brief: as §1

[32] = target: Neu5Ac(a2-6)Gal(b1-4)GlcNAc(b1-6)[Gal(b1-3)]GalNAc
Method in brief: as §1

[33] = target: Neu5Ac(a2-6)Gal(b1-4)GlcNAc6S
Method in brief: as §1

Neu5Ac(a2-6)GalNAc = target: Neu5Ac(a2-6)GalNAc
Method in brief: as §1

[34] = target: Neu5Ac(a2-6)GalNAc(b1-4)GlcNAc
Method in brief: as §1

[35] = target: Neu5Ac(a2-6)GalNAc(b1-4)GlcNAc6S
Method in brief: as §1

[36] = target: Neu5Ac(a2-6)GlcNAc(b1-4)GlcNAc
Method in brief: as §1

B1: PX9937A-bvu-521-23-521 (Bacteroides vulgatus) (protein)
chain: LDLAPEDYYGAGNFWKEASQPKAFMLGLHAQLRSYYDMFYTLGELRGGTQRVGTSSLNTSLNYADIRSQNISEDIPGISNWNGLYSPIMQVNHFIQEVENGCTFLDDATRSRYLGQAYGMRALYYFMLYRTFGGVPLITKVDILDGKPSADKFYVERATPEATMEFIKADINKSENYFGNNTSFDAYDWSRYATLMLKAEIYMWAAKVSITGFTATGATDLQTAKTALSGIIGHFELMDNFASIFSCDNKKNTEIIFAMPFIEGEASNDGGRFLYQDAVFLGQAYGRNGKVIEKDTLNLKGTGGVFRDEYTEDFWKTFKEGDSRRDATFMEYYMKNDNGTLSEFGCVMKKRIGTINSNDNRIYISDIPVYRYADALLMMAEIENGLNNPCASYINEVRKRAYGDTFEENKYTEGSYAENELAILQERDKEFVSEGKRWFDVLRMHDASGRSLVFSANANYPGTNPILGTEEAYKMLWPVNIGTLNVNPLLTQTPGYGKK
glycan array binding signal (z-score) [1]: -0.527 | glycan array binding signal (z-score) (Neu5Ac(a2-6)Gal(b1-4)Glc): -0.465 | glycan array binding signal (z-score) [2]: 0.247 | glycan array binding signal (z-score) [3]: -0.33 | glycan array binding signal (z-score) [4]: -0.145 | glycan array binding signal (z-score) [5]: -0.295 | glycan array binding signal (z-score) [6]: -0.698 | glycan array binding signal (z-score) [7]: 0.052 | glycan array binding signal (z-score) [8]: 0.002 | glycan array binding signal (z-score) [9]: -0.403 | glycan array binding signal (z-score) [10]: -0.103 | glycan array binding signal (z-score) [11]: -0.08 | glycan array binding signal (z-score) [12]: -0.252 | glycan array binding signal (z-score) [13]: -0.132 | glycan array binding signal (z-score) [14]: -0.416 | glycan array binding signal (z-score) [15]: -0.272 | glycan array binding signal (z-score) [16]: 0.053 | glycan array binding signal (z-score) [17]: -0.124 | glycan array binding signal (z-score) [18]: -0.358 | glycan array binding signal (z-score) [19]: -0.411 | glycan array binding signal (z-score) [20]: -0.299 | glycan array binding signal (z-score) [21]: 0.061 | glycan array binding signal (z-score) [22]: -0.211 | glycan array binding signal (z-score) [23]: 0.232 | glycan array binding signal (z-score) [24]: -0.174 | glycan array binding signal (z-score) [25]: -0.125 | glycan array binding signal (z-score) [26]: -0.122 | glycan array binding signal (z-score) [27]: -0.13 | glycan array binding signal (z-score) [28]: -0.431 | glycan array binding signal (z-score) [29]: -0.629 | glycan array binding signal (z-score) [30]: -0.654 | glycan array binding signal (z-score) [31]: 0.043 | glycan array binding signal (z-score) [32]: 0.605 | glycan array binding signal (z-score) [33]: 0.278 | glycan array binding signal (z-score) (Neu5Ac(a2-6)GalNAc): -0.345 | glycan array binding signal (z-score) [34]: -0.422 | glycan array binding signal (z-score) [35]: 0.342 | glycan array binding signal (z-score) [36]: 0.015
